Source: PubChem BioAssay (NCI)
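These data come from cells grown in 96-well plates and exposed to compound for 48 hours at five concentrations. TGI: concentration producing complete growth inhibition.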

Assays:
Assay in all cases: DTP human tumour cell line panel, 48 h
HOP-62 NSCLC = system: HOP-62 NSCLC
MALME-3M melanoma = system: MALME-3M melanoma
SNB-19 CNS = system: SNB-19 CNS
NCI-H522 lung = system: NCI-H522 lung
RXF 393 renal = system: RXF 393 renal
U251 CNS = system: U251 CNS
CCRF-CEM leukemia = system: CCRF-CEM leukemia
SN12C renal = system: SN12C renal
SW-620 colon = system: SW-620 colon
786-0 renal = system: 786-0 renal
TK-10 renal = system: TK-10 renal
MDA-N = system: MDA-N
OVCAR-3 ovarian = system: OVCAR-3 ovarian
SK-OV-3 ovarian = system: SK-OV-3 ovarian
KM12 colon = system: KM12 colon
OVCAR-8 ovarian = system: OVCAR-8 ovarian
RPMI-8226 leukemia = system: RPMI-8226 leukemia
T-47D breast = system: T-47D breast
CAKI-1 renal = system: CAKI-1 renal
COLO 205 colon = system: COLO 205 colon
MOLT-4 leukemia = system: MOLT-4 leukemia
HCT-15 colon = system: HCT-15 colon
M14 melanoma = system: M14 melanoma
SR leukemia = system: SR leukemia
UACC-257 melanoma = system: UACC-257 melanoma
EKVX NSCLC = system: EKVX NSCLC
HOP-92 NSCLC = system: HOP-92 NSCLC
HCC-2998 colon = system: HCC-2998 colon
UACC-62 melanoma = system: UACC-62 melanoma
SNB-75 CNS = system: SNB-75 CNS
HCT-116 colon = system: HCT-116 colon
NCI/ADR-RES ovarian = system: NCI/ADR-RES ovarian
NCI-H23 lung = system: NCI-H23 lung
MDA-MB-231 breast = system: MDA-MB-231 breast
K-562 leukemia = system: K-562 leukemia
HL-60(TB) leukemia = system: HL-60(TB) leukemia
A549 NSCLC = system: A549 NSCLC
DU-145 prostate = system: DU-145 prostate
BT-549 breast = system: BT-549 breast
OVCAR-5 ovarian = system: OVCAR-5 ovarian
ACHN renal = system: ACHN renal
LOX IMVI melanoma = system: LOX IMVI melanoma
NCI-H460 lung = system: NCI-H460 lung
MCF7 breast = system: MCF7 breast
SK-MEL-2 melanoma = system: SK-MEL-2 melanoma
A498 renal = system: A498 renal
IGROV1 ovarian = system: IGROV1 ovarian
SF-268 CNS = system: SF-268 CNS
UO-31 renal = system: UO-31 renal
SF-295 CNS = system: SF-295 CNS
MDA-MB-435 = system: MDA-MB-435
SK-MEL-5 melanoma = system: SK-MEL-5 melanoma
PC-3 prostate = system: PC-3 prostate
HS 578T breast = system: HS 578T breast
SK-MEL-28 melanoma = system: SK-MEL-28 melanoma
OVCAR-4 ovarian = system: OVCAR-4 ovarian

Measured: TGI

O=C1Cc2c([nH]c3cc(Cl)cc(Cl)c23)-c2ccccc2N1
> 100 µM: HOP-62 NSCLC | MALME-3M melanoma | SNB-19 CNS | NCI-H522 lung | RXF 393 renal | U251 CNS | CCRF-CEM leukemia | SN12C renal | SW-620 colon | 786-0 renal | TK-10 renal | MDA-N | OVCAR-3 ovarian | SK-OV-3 ovarian | KM12 colon | OVCAR-8 ovarian | RPMI-8226 leukemia | T-47D breast | CAKI-1 renal | COLO 205 colon | MOLT-4 leukemia | HCT-15 colon | M14 melanoma | SR leukemia | UACC-257 melanoma | EKVX NSCLC | HOP-92 NSCLC | HCC-2998 colon | UACC-62 melanoma | SNB-75 CNS | HCT-116 colon | NCI/ADR-RES ovarian | NCI-H23 lung | MDA-MB-231 breast | K-562 leukemia | A549 NSCLC | DU-145 prostate | BT-549 breast | OVCAR-5 ovarian | ACHN renal | LOX IMVI melanoma | NCI-H460 lung | MCF7 breast | SK-MEL-2 melanoma | A498 renal | IGROV1 ovarian | SF-268 CNS | UO-31 renal | SF-295 CNS | MDA-MB-435 | SK-MEL-5 melanoma | PC-3 prostate | HS 578T breast | SK-MEL-28 melanoma | OVCAR-4 ovarian
98.5 µM: HL-60(TB) leukemia
